Laboratory results as given in the supplement of paper PMC3334620.
Over roughly 33,000 sequences, “E-score (-0.5 to 0.5)” has its median near -0.041; the highest 2% begin near 0.37. This is one part of the list.

Biological target: T1, Ecm22 (UniProt Q05958)
T1 sequence: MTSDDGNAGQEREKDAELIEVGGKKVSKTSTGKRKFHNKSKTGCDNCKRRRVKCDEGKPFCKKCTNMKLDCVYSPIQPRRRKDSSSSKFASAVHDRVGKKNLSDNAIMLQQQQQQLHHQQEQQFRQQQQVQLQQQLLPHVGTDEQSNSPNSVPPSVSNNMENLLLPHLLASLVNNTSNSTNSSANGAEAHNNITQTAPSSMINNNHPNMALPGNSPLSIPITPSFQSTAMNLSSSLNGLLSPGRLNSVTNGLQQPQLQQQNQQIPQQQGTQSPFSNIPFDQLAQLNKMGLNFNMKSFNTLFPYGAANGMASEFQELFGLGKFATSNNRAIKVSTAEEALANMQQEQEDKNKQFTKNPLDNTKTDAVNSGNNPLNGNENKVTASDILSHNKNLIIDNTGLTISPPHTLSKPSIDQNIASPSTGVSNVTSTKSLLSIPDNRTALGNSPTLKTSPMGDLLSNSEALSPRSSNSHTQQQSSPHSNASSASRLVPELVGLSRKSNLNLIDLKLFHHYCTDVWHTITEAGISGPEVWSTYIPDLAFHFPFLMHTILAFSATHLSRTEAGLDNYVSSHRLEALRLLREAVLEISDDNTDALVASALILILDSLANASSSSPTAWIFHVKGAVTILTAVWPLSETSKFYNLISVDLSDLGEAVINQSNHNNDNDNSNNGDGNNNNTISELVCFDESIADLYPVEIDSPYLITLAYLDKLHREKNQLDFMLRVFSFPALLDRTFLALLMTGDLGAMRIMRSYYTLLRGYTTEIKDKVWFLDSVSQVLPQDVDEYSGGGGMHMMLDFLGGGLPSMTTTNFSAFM
Assay: PBM E-score (8-mer binding enrichment) (E-score (-0.5 to 0.5)); higher = stronger / more preferred TF binding; most listed sequences are background and not binding sites
Conditions: protein concentration: 200 nM; construct: GST-full length
Experimental: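 Universal 'all 10-mer' protein binding microarrays (Agilent AMADID 015681) probed with GST-tagged S. cerevisiae TFs (full-length or DBD) made by in vitro transcription/translation (PURExpress), about 100-200 nM. Bound TF was detected with fluorescent anti-GST. Each ungapped 8-mer (which stands for itself and its reverse complement) is scored by the PBM enrichment score (E-score), a modified Wilcoxon-Mann-Whitney statistic from -0.5 to +0.5, computed with the Universal PBM Analysis Suite. Scale: above 0.35 generally sequence-specific binding.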

Sequence | PBM E-score
AGTCGTTC | 0.425
AGATGGAT | -0.344
CACCTCGA | 0.126
ACTCAAAA | 0.014
CCTGCGCC | -0.243
ATTCTTAC | -0.026
CCCAGGTC | -0.218
ATTAGAGG | -0.277
TCACTGAA | -0.101
AAAACTCG | 0.182
CATCTCTC | -0.101
CCCCAGAC | -0.213
ACGCAACG | 0.308
ATATAGAC | 0.0182
CACCGTAA | 0.277
AGAACGGA | 0.0615
AGTCCGAC | -0.141
ATGGAGAA | -0.0758
GGAAATAC | 0.11
AGCGTTAC | 0.0657
CTGTCAGA | -0.0438
CCTCGACA | -0.113
CTACAGTA | -0.0824
ATCCGTAG | -0.0249
TAAGATGA | -0.197

Sequence | PBM E-score
CTGCAATC | -0.0831
GACAATAC | 0.0828
GGCAACGA | 0.417
CGAAGGGA | 0.0402
CGGTCTCC | -0.0719
ACGATACG | 0.383
CTAGTCCA | -0.328
CCCGACCG | 0.168
GAATCGGA | 0.141
AGTTTGAT | 0.0234
CAAAGTGA | 0.00568
CAACCCCA | -0.125
CAGACACC | -0.162
AGACGTAT | 0.181
GGCGCACC | 0.0764
CCAAACCA | -0.234
AGTGATCA | 0.00502
GTTATTAA | 0.168
AACTGCAG | -0.0539
AACGCGAG | 0.231
TAGGATCA | 0.0345
AAACACTT | 0.0131
ATGTCAAA | -0.00618
GACACTTA | -0.0575
GCTGCAGA | 0.0524

Sequence | PBM E-score
GCAACCCA | -0.121
GCCCCGGA | -0.0734
ACACGCAA | 0.0485
AGTAGTGG | -0.177
CGGGTCTA | 0.0514
ACTGACCC | -0.217
ACATGTCA | -0.237
AGGCGGGC | -0.204
AATTAGAA | -0.051
ATAAAGGC | -0.108
ACCCGTAC | 0.374
AGAACTCA | -0.107
CTTGAAGC | -0.181
GAACTCAC | 0.00794
ATAGGCGC | 0.0231
ATTCCAGC | -0.149
ACCCCTAG | -0.186
ACGTATAA | 0.412
CCCCGTCA | -0.221
AGTCTTCC | -0.216
GAATTTGC | -0.123
GGTGAGAC | -0.232
CGGATGCA | -0.154
AGGAAAGC | -0.00904
ACTAAAGT | -0.187

Sequence | PBM E-score
CGACAATC | 0.116
AGCACCAC | -0.203
CATAAAGA | -0.0522
CTACGAAA | 0.302
GCCGTGCC | -0.0282
TCAGTACA | 0.0565
AATACCGT | 0.197
CTCTGACA | -0.113
AACTGCAA | -0.138
ATGTTCCC | -0.0758
CACCGTGC | -0.0452
CCGCGGAA | 0.0414
CCCGGACC | -0.0633
CTAGAGTA | -0.132
CTCCCTCA | -0.162
AACCCTTC | 0.0412
ATCAATAG | -0.12
AATTCGTC | 0.0772
AAATGGGG | -0.296
CCACGTTA | 0.0599
ATAGGACA | 0.0635
ACTATCCA | -0.0129
CGCGCAAC | 0.0984
ATGGACCA | 0.0442
CGGCGGAA | 0.0461

Sequence | PBM E-score
AATCTAAT | -0.0563
GTGTGTTA | 0.00165
ATCCGTGC | -0.0378
GAGGACCA | -0.0372
CATAGGAA | -0.0367
GGCTATGA | -0.21
TATTTGGA | -0.146
CCCAGACA | -0.0677
CCACGAGA | -0.117
AGTCCTCC | -0.137
GCACTGAC | -0.0399
GCCCTGGA | -0.111
CCCGATGC | -0.0981
ACACAAAC | 0.0625
ACACCAGT | -0.156
AGAACCCA | -0.131
AGGCTCGC | 0.208
AACGTAAT | 0.0154
CGAAGGAA | 0.199
ATCGGAGC | 0.0642
ATAAGGGA | -0.0565
GAGGGACA | 0.0905
ATGTTAAT | 0.0381
ATTCTAAA | 0.095
CCATTGAC | -0.0157

Sequence | PBM E-score
AGATTAAA | -0.0693
CCAGCCGC | 0.128
AGAGTACG | 0.257
TCCGTTCA | 0.264
GTAGTATA | 0.213
AAATGGCA | -0.00674
AAGGCTTA | -0.0548
CATGCTCG | 0.0753
CAAAGGGC | -0.286
ATGGGACG | -0.0744
CCGCAGCA | -0.152
ATTACCTG | -0.0898
CTTTTAAA | 0.0526
AAGGCCGT | 0.224
AGGCGCCG | 0.0406
AGTGTTAC | 0.062
ACCGCATG | -0.072
ACGCTTGA | -0.0655
CATGCGCC | -0.145
AATTGCAA | 0.0197
CCCAGCGC | -0.0801
ATGACGTC | 0.0822
AATTGATG | 0.0998
AACAGGTT | -0.0421
CAATCAGC | -0.158

Sequence | PBM E-score
AGTTCATG | -0.0381
ACTGCCAA | 0.0137
AGTTGATC | 0.131
AGGAGAAT | 0.0698
AGAATATC | -0.051
ACGAACGA | 0.447
AAGGTCTC | -0.14
ATCTAAAC | 0.113
GCAACGAA | 0.406
TTCGCAAA | 0.291
AACCCCTG | -0.151
AGACGTGA | -0.0624
ATCAATGG | -0.242
CGTCATGC | -0.0684
AACTGAGC | 0.0143
CCGATAGG | -0.0184
GTTTGTGA | -0.0355
AGACATGG | 0.00126
ATTTCAAA | -0.169
AATAGCTG | -0.194
CACGCGCA | -0.0323
CCTCCGCC | -0.24
